# PubChem BioAssay AID686979 (National Center for Advancing Translational Sciences (NCATS), 2013)
# Hit rate of the full screen: of about 420,000 compounds, about 50,000 (12%) were called active. The shares of active, inactive and inconclusive entries below differ from those in the screen. Calls follow the shape of the dose curve; as a rule, active = well fitted inhibition curve with a large enough effect; inconclusive = small, poorly fitted or top-dose-only effect; inactive = flat fitted curve, though single readings scatter. No potency is given beside an inconclusive call; the fits are too rough.
# Experiment: qHTS for Inhibitors of human tyrosyl-DNA phosphodiesterase 1 (TDP1): qHTS in cells in presence of CPT; also: nearly all actives have a fitted effect of over 55% in size
# Conditions: chicken DT40 Tdp1-/-;hTDP1 cells + 20 nM CPT, ATP luminescence, 48 h; activity change, negative = growth inhibition: at 46.2 µM (top of the series) unless noted
# Outline: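 Cell growth measured by CellTiter-Glo luminescence after a minimum 48 h, 37 C compound exposure with 20 nM CPT in Tdp1-knockout DT40 cells stably expressing hTDP1, seeded 400/well; qHTS titration format.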
# % is scaled to controls: 0 for no effect and ±100 for the full control effect; potency is read from the fitted curve at half-maximal effect; tags tell the direction and shape of the fitted curve.
Compound,Potency,"activity change, negative = growth inhibition"
CC(C)(C)[C@H]1COC(=O)[C@@H](Cc2ccc(F)cc2)C/C=C\C[C@@H](CC(=O)N[C@@H](CO)Cc2ccccc2)C(=O)N1,"inconclusive [inhibitor, single point]",–
CCOc1ccc(CCN2C(=O)C(=O)N([C@@H](Cc3ccc(O)cc3)CN3CCC[C@H]3CN3C(=O)C(=O)NC[C@@H]3Cc3ccccc3)C[C@@H]2Cc2ccc(O)cc2)cc1,"inconclusive [inhibitor, single point]",–
Cc1cccc(C)c1C(=O)N[C@@H](Cc1ccccc1)C(=O)O,inactive,–
COc1ccc(-c2nn(-c3ccccc3)cc2C(=O)N/N=C/c2ccc([N+](=O)[O-])o2)cc1,"inconclusive [inhibitor, partial curve]",–
O=c1oc2ccccc2nc1/C=C(\O)c1ccccc1,"inconclusive [inhibitor, single point]",–
CC(Oc1ccccc1)C(=O)Nc1ccc(OCc2cc(=O)n3ccsc3n2)cc1 (stereo unspecified),"inconclusive [inhibitor, single point]",–
COc1ccc(C2NS(=O)(=O)N=C2N)cc1 (stereo unspecified),"inconclusive [inhibitor, single point]",–
CCCCCc1ccc(OCCCC[n+]2ccccc2)c(CCCCC)c1,active: 2.59 µM,–
CC(C)(C)c1csc(NC(=O)Cn2c(=O)oc3ccccc32)n1,active: 16.4 µM,–
CCC(=O)NCc1nc2ccccc2n1Cc1ccccc1F,"inconclusive [inhibitor, single point]",–
COc1cccc(C(=O)N2CCN(C(=O)c3cccc4ccccc34)CC2)c1OC,"inconclusive [inhibitor, single point]",–
CCOC(=O)c1c(S(=O)(=O)N2CCCC(C(=O)Nc3cccc(C#N)c3)C2)c(C)n(C)c1C (stereo unspecified),"inconclusive [inhibitor, single point]",–
COC(=O)c1ccccc1NC(=O)c1ccc(F)cc1,"inconclusive [inhibitor, partial curve, poor fit]",–
Cc1ccc(S(=O)(=O)Nc2ccc(-n3cnnn3)cc2)c(C)c1,"inconclusive [inhibitor, single point]",–
O=C(OCC(=O)N1CCN(c2ccccc2)CC1)C1CCCN1S(=O)(=O)c1ccc(Cl)cc1 (stereo unspecified),"inconclusive [inhibitor, single point]",–
Cc1cc(C)c(NC(=O)Nc2ccccc2C)c(Cl)c1,inactive,–
COc1ccc(C(=O)/C(Br)=C\C(=O)O)cc1,active: 2.66 µM,–
N#CC1=C(SCC(=O)c2cc3ccccc3oc2=O)NC(=O)C(C#N)C12CCCC2 (stereo unspecified),inactive,–
CN(C(=O)COC(=O)/C=C/c1ccc(C(F)(F)F)cc1)c1c(N)n(Cc2ccccc2)c(=O)[nH]c1=O,active: 6.51 µM,–
CC(=O)Nc1ccc(C(=O)N2CCc3cc4c(cc3C2C)OCCCO4)cc1 (stereo unspecified),"inconclusive [inhibitor, single point]",–
COc1ccc(N2CCN(C(=O)c3ccc(C)c(Cl)c3)CC2)cc1,"inconclusive [inhibitor, single point]",–
O=C(Nc1cccnc1)c1cccc(S(=O)(=O)Nc2cccc(Cl)c2)c1,"inconclusive [inhibitor, partial curve]",–
CCC(=O)c1c[nH]c(C(=O)NCCCN2CCOCC2)c1,inactive,–

Compound,Potency,"activity change, negative = growth inhibition"
COc1cc(Nc2nc3ccccc3n3nnnc23)cc(OC)c1OC,active: 8.2 µM,–
NS(=O)(=O)c1ccc(CCNC(=O)c2ccc3nc(CCc4ccccc4)oc3c2)cc1,"inconclusive [inhibitor, single point]",–
O=C(O)Cn1cc(CN2CCOCC2)c2ccccc21,inactive,–
CSc1ccccc1-c1ccc2nccn2c1,"inconclusive [inhibitor, single point]",–
Cc1nnc(SC(C)C(=O)Nc2ccc(N3CCOCC3)cc2)n1Cc1ccccc1 (stereo unspecified),inactive,–
CCN(CC)CCN(Cc1cc2cc(C)cc(C)c2[nH]c1=O)C(=S)NCc1ccco1,active: 25.9 µM,–
CCOc1ccc(CC(=O)Nc2c(C(=O)Nc3ccc(OC)cc3OC)oc3ccccc23)cc1,"inconclusive [inhibitor, partial curve, poor fit]",–
CCNC(=O)c1cc2c(c(-c3cccc(-c4ccccc4F)c3)n1)[C@H](CCO)N(C(=O)CC)C2,active: 7.31 µM,–
CN1CCN([C@H]2CS(=O)(=O)N[C@@H]2COCc2ccccc2)CC1,"inconclusive [inhibitor, full curve]",–
Cn1cccc1CC(=O)N/N=C/c1cc([N+](=O)[O-])ccc1Cl,inactive,–
Cc1ccc(CNC(=O)CCc2ccc(S(=O)(=O)NCC(C)C)cc2)cc1,inactive,–
CC(C)c1ccc(S(=O)(=O)N2CCN(C(=O)c3cc([N+](=O)[O-])ccc3N3CCOCC3)CC2)cc1,–,inconclusive: -33.5% [inhibitor]
COc1ccc(CNC(=O)Cc2c[nH]c3ccccc23)cc1OC,inactive,–
NC(=S)N/N=C/c1coc2ccc(F)cc2c1=O,inactive,–
O=C(CCCOc1ccc(Cl)cc1Cl)Nc1ccncc1,"inconclusive [inhibitor, single point]",–
COc1cc(CNC(=O)CCn2nc(C)c3c(C)n(-c4ccccc4)nc3c2=O)cc(OC)c1OC,inactive,–
CC(=O)Nc1ccc(-c2cc(C(=O)O)c3ccccc3n2)cc1,inactive,–
NC1=NC[C@H](Cc2ccccc2)N1CCCCC1CCCCC1,active: 5.17 µM,–
CCCCn1nc(C(=O)Nc2cc(S(=O)(=O)N(C)C)ccc2C)c2ccccc2c1=O,inactive,–
Cc1ccc(S(=O)(=O)N2CCOCC2)cc1NC(=O)COc1ccc(C(=O)c2ccccc2)cc1,"inconclusive [inhibitor, single point]",–
CC(=O)Nc1cccc(C(=O)OC(C)C(=O)NCc2ccc3c(c2)OCO3)c1 (stereo unspecified),inactive,–
Cc1ccc(C)c(NC(=O)COC(=O)c2ccc3ccccc3n2)c1,inactive,–
CCN1CCN(S(=O)(=O)c2ccc(Cl)c(C(=O)N(CCc3ccccc3)Cc3ccccc3)c2)CC1,active: 23.1 µM,–
